Positions count from the first letter of the chain named. Names and notes keep the numbering of the source. These are yes or no findings as the source states them, for the method shown. Binding seen in cells or lysates may run through a third protein. Some binding calls cover weakened binding; strength is not graded here.

Assay [1] concerns the target T1, Smc3 E202C (S. cerevisiae) (UniProt P47037).
T1 sequence: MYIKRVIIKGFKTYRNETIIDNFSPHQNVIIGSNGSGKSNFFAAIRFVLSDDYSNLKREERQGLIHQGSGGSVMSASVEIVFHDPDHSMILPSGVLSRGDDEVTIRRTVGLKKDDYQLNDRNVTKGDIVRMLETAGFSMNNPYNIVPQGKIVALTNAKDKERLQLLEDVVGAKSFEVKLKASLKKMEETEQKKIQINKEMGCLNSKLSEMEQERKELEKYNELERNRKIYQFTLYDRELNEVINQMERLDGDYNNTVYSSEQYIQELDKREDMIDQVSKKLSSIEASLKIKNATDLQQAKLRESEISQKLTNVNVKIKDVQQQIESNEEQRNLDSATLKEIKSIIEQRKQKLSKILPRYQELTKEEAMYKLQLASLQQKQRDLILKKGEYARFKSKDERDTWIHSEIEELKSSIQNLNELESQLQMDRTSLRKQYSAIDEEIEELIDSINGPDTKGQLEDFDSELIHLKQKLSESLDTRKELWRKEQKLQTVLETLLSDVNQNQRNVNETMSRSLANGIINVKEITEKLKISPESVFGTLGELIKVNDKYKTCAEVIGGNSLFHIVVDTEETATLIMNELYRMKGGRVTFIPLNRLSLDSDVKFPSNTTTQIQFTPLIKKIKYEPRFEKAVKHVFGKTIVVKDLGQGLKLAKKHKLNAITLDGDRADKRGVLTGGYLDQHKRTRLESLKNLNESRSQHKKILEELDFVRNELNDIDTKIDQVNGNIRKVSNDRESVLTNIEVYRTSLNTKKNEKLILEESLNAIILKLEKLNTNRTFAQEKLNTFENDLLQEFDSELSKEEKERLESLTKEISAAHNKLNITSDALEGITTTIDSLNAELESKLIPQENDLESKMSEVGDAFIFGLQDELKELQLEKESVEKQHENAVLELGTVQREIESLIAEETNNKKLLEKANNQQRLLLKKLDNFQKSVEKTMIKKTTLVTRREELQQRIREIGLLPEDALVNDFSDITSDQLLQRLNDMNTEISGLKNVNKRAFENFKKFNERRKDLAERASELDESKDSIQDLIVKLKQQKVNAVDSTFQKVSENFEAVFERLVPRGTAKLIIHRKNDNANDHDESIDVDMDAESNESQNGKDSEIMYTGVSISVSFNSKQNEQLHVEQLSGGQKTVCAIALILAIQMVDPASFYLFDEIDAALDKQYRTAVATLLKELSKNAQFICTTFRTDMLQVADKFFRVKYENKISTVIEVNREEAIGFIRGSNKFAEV
Nature of the assay: cross-linking; in vivo BMOE cross-link of cysteine pairs in exponentially grown yeast cells (on ice, 6 min); Scc1-PK immunoprecipitated, western blot. Background: Immunoblotting shows a protein as a band on a membrane.

Assay [2] addresses T2, Smc3^QQ-PK (S. cerevisiae) (UniProt P47037).
T2 sequence: T1 sequence with K112Q, K113Q, C202E
As to the kind of experiment: co-IP; Smc3-PK or Smc3^QQ-PK immunoprecipitated with anti-PK from whole-cell extracts of BMOE-treated late G1 arrested cells; Smc1 (anti-MYC) and Scc2 (anti-FLAG) detected.

The next assay addresses T3, Smc3-PK (S. cerevisiae) (UniProt P47037).
T3 sequence: T1 sequence with C202E
The description is as above.

B1: Smc1 R1031C (protein, UniProt P32908 1-1225)
chain: MGRLVGLELSNFKSYRGVTKVGFGESNFTSIIGPNGSGKSNMMDAISFVLGVRSNHLRSNILKDLIYRGVLNDENSDDYDNEGAASSNPQSAYVKAFYQKGNKLVELMRIISRNGDTSYKIDGKTVSYKDYSIFLENENILIKAKNFLVFQGDVEQIAAQSPVELSRMFEEVSGSIQYKKEYEELKEKIEKLSKSATESIKNRRRIHGELKTYKEGINKNEEYRKQLDKKNELQKFQALWQLYHLEQQKEELTDKLSALNSEISSLKGKINNEMKSLQRSKSSFVKESAVISKQKSKLDYIFKDKEKLVSDLRLIKVPQQAAGKRISHIEKRIESLQKDLQRQKTYVERFETQLKVVTRSKEAFEEEIKQSARNYDKFKLNENDLKTYNCLHEKYLTEGGSILEEKIAVLNNDKREIQEELERFNKRADISKRRITEELSITGEKLDTQLNDLRVSLNEKNALHTERLHELKKLQSDIESANNQEYDLNFKLRETLVKIDDLSANQRETMKERKLRENIAMLKRFFPGVKGLVHDLCHPKKEKYGLAVSTILGKNFDSVIVENLTVAQECIAFLKKQRAGTASFIPLDTIETELPTLSLPDSQDYILSINAIDYEPEYEKAMQYVCGDSIICNTLNIAKDLKWKKGIRGKLVTIEGALIHKAGLMTGGISGDANNRWDKEEYQSLMSLKDKLLIQIDELSNGQRSNSIRAREVENSVSLLNSDIANLRTQVTQQKRSLDENRLEIKYHNDLIEKEIQPKITELKKKLDDLENTKDNLVKEKEALQNNIFKEFTSKIGFTIKEYENHSGELMRQQSKELQQLQKQILTVENKLQFETDRLSTTQRRYEKAQKDLENAQVEMKSLEEQEYAIEMKIGSIESKLEEHKNHLDELQKKFVTKQSELNSSEDILEDMNSNLQVLKRERDGIKEDIEKFDLERVTALKNCKISNINIPISSETTIDDLPISSTDNEAITISNSIDINYKGLPKKYKENNTDSARKELEQKIHEVEEILNELQPNARALERYDEAEGCFEVINNETEQLKAEEKKILNQFLKIKKKRKELFEKTFDYVSDHLDAIYRELTKNPNSNVELAGGNASLTIEDEDEPFNAGIKYHATPPLKRFKDMEYLSGGEKTVAALALLFAINSYQPSPFFVLDEVDAALDITNVQRIAAYIRRHRNPDLQFIVISLKNTMFEKSDALVGVYRQQQENSSKIITLDLSNYAE
In the case of B1, the binding entry in assay [1] is listed as “binds”.

B2: Smc1 E1102C (protein, UniProt P32908 1-1225)
chain: B1 chain with C1031R, E1102C
With B2, the binding result (in assay [2]; in the assay with Smc3-PK (S. cerevisiae)) was “binds” throughout.
